We go through 48 molecules from PubChem BioAssay AID1963576 (National Center for Advancing Translational Sciences (NCATS), 2024).

The structures appear in SMILES notation. Among all 46,000 compounds or so, about 60 (0.1%) were called active. About 3% were inconclusive and are not listed. Calls follow the shape of the dose curve; as a rule, active = well fitted inhibition curve with a large enough effect; inconclusive = small, poorly fitted or top-dose-only effect; inactive = no such curve, though single readings can be large or run the other way. Some of the results follow.

The test is described as follows: Primary qHTS assay for Inhibitors of ovarian cancer metastasis using an organotypic tumor microenvironment (TME) model. Also: nearly all actives have a fitted effect of over 65% in size.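 As to activity change, negative = inhibition: plate controls were DMSO wells for no effect and tomatine positive control wells for full effect.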 As to conditions: SKOV3ip1-GFP adhesion/invasion on 3D omental model, fluorescence; series mostly up to 45.8 µM; activity change, negative = inhibition: at the top concentration. In outline:
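Primary human omental fibroblast/mesothelial 3D culture pre-formed 48 h. SKOV3ip1-GFP cells added with compounds (0.36-46 umol/L), incubated 2 h RT/16 h 37 C, fixed; GFP cells quantified at 488/509 nm.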
`COc1ccc(NC(=O)Cn2cnc3c(nc4n3CCCCC4)c2=O)cc1Cl`: the “activity change, negative = inhibition” value is inactive: -0.11%.

For the molecule `COc1ccc(OC)c(NC(=O)c2nnn(CC(=O)Nc3ccc(C(C)C)cc3)c2N)c1`, the result was inactive.

With `CCCS(=O)(=O)Nc1cccc(-c2cn3ccsc3n2)c1`, the “activity change, negative = inhibition” value was inactive: 1.79%.

Regarding `COc1ccc(NC(=O)Cn2c(=O)oc3cc(S(=O)(=O)N4CCCC4)ccc32)cc1OC`, the molecule was called inactive.

With `COc1ccc(CCNC(=O)c2ccc3nc(CCc4ccccc4)oc3c2)cc1OC`, the “activity change, negative = inhibition” value was inactive: 1.45%.

Turning to `CCC(=O)NCCc1sc2nc(-c3ccc(OC)cc3)nn2c1C`, the “activity change, negative = inhibition” value was inactive: 8.92%.

As to `COc1ccc(C2CC(=O)Nc3c2c(C)nn3-c2nc(C)cc(C)n2)c(OC)c1OC` (stereo not drawn), the “activity change, negative = inhibition” value is inactive: 1.11%.

For `COC(=O)c1c(NC(=O)COc2ccc(C(C)C)cc2)sc2c1CCCC2`, the “activity change, negative = inhibition” value is inactive: 11.5%.

On to `CCc1cccc(NC(=O)CCn2nc(C)cc2C)c1`, for which the “activity change, negative = inhibition” value is inactive: 0.532%.

Take `COc1ccccc1CCNC(=O)C1(c2cccs2)CCOCC1`: the “activity change, negative = inhibition” value was inactive: -1.09%.

As for `COc1ccc(N2CCN(C(=O)c3noc4c3CCCCC4)CC2)cc1`, the “activity change, negative = inhibition” value was inactive: -11.4%.

For the molecule `O=c1oc2c(CN3CCOCC3)c(O)ccc2cc1-c1ccccc1`, the outcome was inactive.

With `COc1cccc(CNCc2c(C(=O)O)n(Cc3ccc(C)cc3)c3cc(C)ccc23)c1OC`, the “activity change, negative = inhibition” value is inactive: 3.52%.

For the molecule `O=C(Nc1ccc2oc(-c3ccc(Br)cc3)nc2c1)c1cc2ccccc2o1`, the “activity change, negative = inhibition” value is inactive: 2.1%.

For `CC(=O)c1ccc(NC(=O)c2sc(-n3nc(C)c(Cc4ccc5c(c4)OCO5)c3C)nc2C)cc1`, the “activity change, negative = inhibition” value was inactive: -0.587%.

As for `Cc1ccc(NC(=O)c2ccc(-c3ccccc3)s2)cc1`, the “activity change, negative = inhibition” value is inactive: -1.32%.

For `CCC1CN(C(=O)N2CCC(C(=O)NCc3cccs3)CC2)c2ccccc2O1` (stereo not drawn), the “activity change, negative = inhibition” value was inactive: -3.72%.

`Cc1ccc(N2C(=O)CSC23C(=O)N(CC(=O)NCCc2ccccc2)c2ccccc23)cc1` (stereo not drawn): the result was inactive.

In the case of `Cc1ccc(C(=O)OCc2cc(=O)n3nc(CC(C)C)sc3n2)cc1`, the molecule was classed as inactive.

On to `COc1ccc(CCNC(=O)c2cnc3sc(N4CCCCCC4)nn3c2=O)cc1`, for which the “activity change, negative = inhibition” value is inactive: 2.52%.

Turning to `Cc1nnc(NC(=O)CSc2nc3c([nH]c4ccccc43)c(=O)n2-c2cccc(Cl)c2)s1`, the “activity change, negative = inhibition” value was inactive: -11.8%.

Regarding `COc1ccc(C)cc1NC(=O)NCCn1nnc2cc(S(=O)(=O)N(C)C)ccc21`, the “activity change, negative = inhibition” value was inactive: 10.7%.

`COc1ccc(-c2nc3ccccc3o2)cc1NC(=O)c1cc(Br)ccc1OC`: the “activity change, negative = inhibition” value is inactive: -1.57%.

Consider `O=C(NCCc1nc2ccccc2n1Cc1ccc(Cl)cc1)c1ccccc1`, for which the “activity change, negative = inhibition” value was inactive: -1.44%.

With `CCOC(=O)c1ccccc1NC(=O)c1sc2nc(-c3ccc(F)cc3)cn2c1C`, the “activity change, negative = inhibition” value is inactive: 12%.

In the case of `Cc1cc(C)cc(NCc2nnc3n2CCCCC3)c1`, the “activity change, negative = inhibition” value was inactive: -6.45%.

With `CCCN(C(=O)c1ccc2c(=O)n3c(nc2c1)CCCCC3)c1cccc(Cl)c1`, the “activity change, negative = inhibition” value is inactive: 6.53%.

With `Cc1ccc2occ(CC(=O)Nc3c(C)cccc3C)c2c1`, the “activity change, negative = inhibition” value is inactive: 9.71%.

As to `Cc1c(NS(=O)(=O)c2ccc(C(C)(C)C)cc2)c(=O)n(-c2ccccc2)n1C`, the “activity change, negative = inhibition” value was inactive: 3.59%.

Turning to `CC(=O)N1CCc2cc(Br)cc(S(=O)(=O)CCC(=O)NCc3ccc(F)cc3)c21`, the call was inactive.

Take `O=C(CCNS(=O)(=O)c1ccc2c(c1)CCN2C(=O)C1CC1)Nc1ccc(Cl)cc1`: the “activity change, negative = inhibition” value is inactive: -6.09%.

As for `COc1cn(CC(=O)Nc2ccc(C)cc2)c(CN2CCCCC2)cc1=O`, the molecule was called inactive.

In the case of `Cc1cccc(C)c1NC(=O)CCSCCc1ccccn1`, the “activity change, negative = inhibition” value is inactive: -1.47%.

Consider `COc1ccc(OCC(=O)N2CCN(C(=O)c3ccc(OC)c(OC)c3)CC2)cc1`, for which the “activity change, negative = inhibition” value was inactive: -24.3%.

In the case of `COc1ccc(NC(=O)CN2C(=O)COc3ccc(S(=O)(=O)NC4CCCC4)cc32)cc1OC`, the “activity change, negative = inhibition” value is inactive: 3.88%.

For `Cc1cc2c(cc1S(=O)(=O)NCc1ccc(F)cc1)OCC(=O)N2`, the “activity change, negative = inhibition” value was inactive: -1.8%.

With `Cc1cccc(NC(=O)CN2C(=O)C(c3ccc(F)cc3)=NC23CCCCCC3)c1C`, the result was inactive.

For `CSc1ccc(CCNC(=O)Cn2ncc3c([nH]c4ccccc43)c2=O)cc1`, the “activity change, negative = inhibition” value was inactive: -2.09%.

For the molecule `CCOC(=O)c1cc2c(=O)n3ccccc3nc2n(CCOC)c1=NC(=O)c1c(-c2c(F)cccc2Cl)noc1C`, the “activity change, negative = inhibition” value was inactive: 0.94%.

As for `O=C(c1ccccc1)n1nc(-c2ccc(Cl)cc2)nc1NCc1ccco1`, the “activity change, negative = inhibition” value is inactive: -8.88%.

In the case of `Cc1ccc(-n2ncc3c(NC4CCCCC4)ncnc32)cc1C`, the “activity change, negative = inhibition” value was inactive: 29.1%.

For `CCOc1ccc2c(c1)NC(c1ccc(OCC)c(OCC)c1)=NC(c1ccc(F)cc1)=N2`, the “activity change, negative = inhibition” value was inactive: -13.8%.

On to `CCc1ccc(N(CC)C(=O)c2cn(C)c(=O)c3cc(OC)c(OC)cc23)cc1`, for which the call was inactive.

Turning to `CCc1ccc(C(=O)c2cn(CC(=O)Nc3ccc4c(c3)OCO4)c3ccc(Cl)cc3c2=O)cc1`, the molecule was called inactive.

With `COc1ccccc1C(=O)NC(=O)Nc1ccc(-c2cc(C(F)(F)F)nn2-c2ccccc2)cc1`, the “activity change, negative = inhibition” value was inactive: -2.55%.

`CCOc1ccc(CCNC(=O)c2c3c(nc4ccccc24)C(=O)N(C2CCCCC2)C3)cc1`: the “activity change, negative = inhibition” value is inactive: 5.64%.

As to `Cc1ccc(S(=O)(=O)N2CCCc3cc(NC(=O)c4ccc(Cl)cc4)ccc32)cc1`, the “activity change, negative = inhibition” value is inactive: 1.35%.

In the case of `CCn1c(CNC(=O)c2ccc(OC)cc2)nnc1SCC(=O)Nc1cccc(C)c1`, the “activity change, negative = inhibition” value was inactive: 25.2%.
